According to PMC9911399, “Two distinct binding modes provide the RNA-binding protein RbFox with extraordinary sequence specificity”:
Numbering of substitutions follows the chain as printed; changes in the protein carry UniProt numbers. This is one part of the list.

T1: RBFOX1 RRM RbFoxmut (Fox-RRM*) (Homo sapiens, UniProt Q9NWB1 109-208, R118D;E147R;N151S;E152T)
T1 sequence: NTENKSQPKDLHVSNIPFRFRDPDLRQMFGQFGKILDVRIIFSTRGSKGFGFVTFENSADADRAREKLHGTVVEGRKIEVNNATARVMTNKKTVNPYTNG

B1: UCGCCGU (DNA:RNA)
RNA: GGGAGACCGGAAUUCAGAUUGUCCUCGCCGUUUAAAUCCCGUCGUAGCCACCA
DNA 1: CAATCTGAATTCCGGTCTCCC
DNA 2: TGGTGGCTACGACGGGATT
B2: CGCUUCC (DNA:RNA)
RNA: GGGAGACCGGAAUUCAGAUUGUCCCGCUUCCUUAAAUCCCGUCGUAGCCACCA
DNA 1: CAATCTGAATTCCGGTCTCCC
DNA 2: TGGTGGCTACGACGGGATT
B3: AUGGGCA (DNA:RNA)
RNA: B2 RNA with C25A, G26U, C27G, U28G, U29G, C31A
DNA 1: CAATCTGAATTCCGGTCTCCC
DNA 2: TGGTGGCTACGACGGGATT
B4: GUGUGCG (DNA:RNA)
RNA: B2 RNA with C25G, G26U, C27G, U29G, C31G
DNA 1: CAATCTGAATTCCGGTCTCCC
DNA 2: TGGTGGCTACGACGGGATT
B5: UUUAUGU (DNA:RNA)
RNA: B1 RNA with C26U, G27U, C28A, C29U
DNA 1: CAATCTGAATTCCGGTCTCCC
DNA 2: TGGTGGCTACGACGGGATT
B6: UAAUUAG (DNA:RNA)
RNA: B2 RNA with C25U, G26A, C27A, C30A, C31G
DNA 1: CAATCTGAATTCCGGTCTCCC
DNA 2: TGGTGGCTACGACGGGATT
B7: GUACCUA (DNA:RNA)
RNA: B1 RNA with U25G, C26U, G27A, G30U, U31A
DNA 1: CAATCTGAATTCCGGTCTCCC
DNA 2: TGGTGGCTACGACGGGATT
B8: AAACUAG (DNA:RNA)
RNA: B2 RNA with C25A, G26A, C27A, U28C, C30A, C31G
DNA 1: CAATCTGAATTCCGGTCTCCC
DNA 2: TGGTGGCTACGACGGGATT
B9: GUCAGAA (DNA:RNA)
RNA: B2 RNA with C25G, G26U, U28A, U29G, C30A, C31A
DNA 1: CAATCTGAATTCCGGTCTCCC
DNA 2: TGGTGGCTACGACGGGATT
B10: UGGGACC (DNA:RNA)
RNA: B2 RNA with C25U, C27G, U28G, U29A
DNA 1: CAATCTGAATTCCGGTCTCCC
DNA 2: TGGTGGCTACGACGGGATT
B11: AGGUGAG (DNA:RNA)
RNA: B2 RNA with C25A, C27G, U29G, C30A, C31G
DNA 1: CAATCTGAATTCCGGTCTCCC
DNA 2: TGGTGGCTACGACGGGATT
B12: CUUGUCC (DNA:RNA)
RNA: B2 RNA with G26U, C27U, U28G
DNA 1: CAATCTGAATTCCGGTCTCCC
DNA 2: TGGTGGCTACGACGGGATT
B13: CAGAAGG (DNA:RNA)
RNA: B1 RNA with U25C, C26A, C28A, C29A, U31G
DNA 1: CAATCTGAATTCCGGTCTCCC
DNA 2: TGGTGGCTACGACGGGATT
B14: GCCAAUC (DNA:RNA)
RNA: B2 RNA with C25G, G26C, U28A, U29A, C30U
DNA 1: CAATCTGAATTCCGGTCTCCC
DNA 2: TGGTGGCTACGACGGGATT
B15: GGGGACU (DNA:RNA)
RNA: B2 RNA with C25G, C27G, U28G, U29A, C31U
DNA 1: CAATCTGAATTCCGGTCTCCC
DNA 2: TGGTGGCTACGACGGGATT
B16: CACGCGA (DNA:RNA)
RNA: B2 RNA with G26A, U28G, U29C, C30G, C31A
DNA 1: CAATCTGAATTCCGGTCTCCC
DNA 2: TGGTGGCTACGACGGGATT
B17: AAUGCAG (DNA:RNA)
RNA: B1 RNA with U25A, C26A, G27U, C28G, G30A, U31G
DNA 1: CAATCTGAATTCCGGTCTCCC
DNA 2: TGGTGGCTACGACGGGATT
B18: GCCACUC (DNA:RNA)
RNA: B2 RNA with C25G, G26C, U28A, U29C, C30U
DNA 1: CAATCTGAATTCCGGTCTCCC
DNA 2: TGGTGGCTACGACGGGATT
B19: UGAGCUU (DNA:RNA)
RNA: B1 RNA with C26G, G27A, C28G, G30U
DNA 1: CAATCTGAATTCCGGTCTCCC
DNA 2: TGGTGGCTACGACGGGATT
B20: AGCUUUG (DNA:RNA)
RNA: B2 RNA with C25A, C30U, C31G
DNA 1: CAATCTGAATTCCGGTCTCCC
DNA 2: TGGTGGCTACGACGGGATT
B21: CUUACUG (DNA:RNA)
RNA: B2 RNA with G26U, C27U, U28A, U29C, C30U, C31G
DNA 1: CAATCTGAATTCCGGTCTCCC
DNA 2: TGGTGGCTACGACGGGATT
B22: GCUUCCC (DNA:RNA)
RNA: B2 RNA with C25G, G26C, C27U, U29C
DNA 1: CAATCTGAATTCCGGTCTCCC
DNA 2: TGGTGGCTACGACGGGATT
B23: UUUAACG (DNA:RNA)
RNA: B2 RNA with C25U, G26U, C27U, U28A, U29A, C31G
DNA 1: CAATCTGAATTCCGGTCTCCC
DNA 2: TGGTGGCTACGACGGGATT
B24: GUUUCGA (DNA:RNA)
RNA: B1 RNA with U25G, C26U, G27U, C28U, U31A
DNA 1: CAATCTGAATTCCGGTCTCCC
DNA 2: TGGTGGCTACGACGGGATT
B25: GACGCCC (DNA:RNA)
RNA: B2 RNA with C25G, G26A, U28G, U29C
DNA 1: CAATCTGAATTCCGGTCTCCC
DNA 2: TGGTGGCTACGACGGGATT
B26: ACUUUUG (DNA:RNA)
RNA: B2 RNA with C25A, G26C, C27U, C30U, C31G
DNA 1: CAATCTGAATTCCGGTCTCCC
DNA 2: TGGTGGCTACGACGGGATT
B27: UGCCGUC (DNA:RNA)
RNA: B2 RNA with C25U, U28C, U29G, C30U
DNA 1: CAATCTGAATTCCGGTCTCCC
DNA 2: TGGTGGCTACGACGGGATT
B28: UCUCUAU (DNA:RNA)
RNA: B1 RNA with G27U, C29U, G30A
DNA 1: CAATCTGAATTCCGGTCTCCC
DNA 2: TGGTGGCTACGACGGGATT
B29: AAUCUCG (DNA:RNA)
RNA: B2 RNA with C25A, G26A, C27U, U28C, C31G
DNA 1: CAATCTGAATTCCGGTCTCCC
DNA 2: TGGTGGCTACGACGGGATT
B30: CCAAAUG (DNA:RNA)
RNA: B2 RNA with G26C, C27A, U28A, U29A, C30U, C31G
DNA 1: CAATCTGAATTCCGGTCTCCC
DNA 2: TGGTGGCTACGACGGGATT
B31: GUGAAGA (DNA:RNA)
RNA: B1 RNA with U25G, C26U, C28A, C29A, U31A
DNA 1: CAATCTGAATTCCGGTCTCCC
DNA 2: TGGTGGCTACGACGGGATT

Molecular target: T1, RBFOX1 RRM RbFoxmut (Fox-RRM*)
Assay: EMSA; HiTS-Eq, 1 nM pool, 10 min; buffer printed only for the single-RNA assays: 10 mM Tris pH 7.5, 150 mM NaCl, 3.4 mM EDTA, 0.001% NP-40, 30 C
Conditions: tags: His6 N-terminal (pET28a); label: 5' 32P
Method in brief: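 Purified RbFox RRM, wild type or mutant, was incubated for 10 min in 50 µL with 1 nM of a 5′-radiolabelled RNA pool carrying 7 randomized nucleotides, whose flanks were annealed to DNA oligonucleotides, over a series of increasing protein concentrations. Unbound RNA was resolved on 8% native PAGE, cut out, reverse-transcribed, barcoded by PCR and sequenced on an Illumina HiSeq 2500. Relative association constants were derived from changes in read counts for each RNA species versus the control reaction and normalised to the cognate motif.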

Row | Binder | binding signal
1 | B1 | 0.103 KA relative to UGCAUGU
2 | B2 | 0.0933 KA relative to UGCAUGU
3 | B3 | 0.0919 KA relative to UGCAUGU
4 | B4 | 0.314 KA relative to UGCAUGU
5 | B5 | 0.149 KA relative to UGCAUGU
6 | B6 | 0.1 KA relative to UGCAUGU
7 | B7 | 0.0857 KA relative to UGCAUGU
8 | B8 | 0.117 KA relative to UGCAUGU
9 | B9 | 0.0792 KA relative to UGCAUGU
10 | B10 | 0.107 KA relative to UGCAUGU
11 | B11 | 0.119 KA relative to UGCAUGU
12 | B12 | 0.107 KA relative to UGCAUGU
13 | B13 | 0.0734 KA relative to UGCAUGU
14 | B14 | 0.0382 KA relative to UGCAUGU
15 | B15 | 0.0795 KA relative to UGCAUGU
16 | B16 | 0.0691 KA relative to UGCAUGU

Row | Binder | binding signal
17 | B17 | 0.103 KA relative to UGCAUGU
18 | B18 | 0.0437 KA relative to UGCAUGU
19 | B19 | 0.0836 KA relative to UGCAUGU
20 | B20 | 0.119 KA relative to UGCAUGU
21 | B21 | 0.119 KA relative to UGCAUGU
22 | B22 | 0.068 KA relative to UGCAUGU
23 | B23 | 0.112 KA relative to UGCAUGU
24 | B24 | 0.217 KA relative to UGCAUGU
25 | B25 | 0.0796 KA relative to UGCAUGU
26 | B26 | 0.116 KA relative to UGCAUGU
27 | B27 | 0.0894 KA relative to UGCAUGU
28 | B28 | 0.103 KA relative to UGCAUGU
29 | B29 | 0.063 KA relative to UGCAUGU
30 | B30 | 0.131 KA relative to UGCAUGU
31 | B31 | 0.119 KA relative to UGCAUGU
